# The other results are listed elsewhere or left out. Repeats are few or missing, and single values can be far off.
# How the values were obtained:
# Test in all cases: cell count relative to DMSO control; melanoma cells; higher = more viable cells
# Settings in all cases: library dose: low library concentration; 72 h
# WM115 = system: WM115
# WM1716 = system: WM1716
# WM1745 = system: WM1745
# WM3526 = system: WM3526
# WM3619 = system: WM3619
# WM451Lu = system: WM451Lu
# 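Further: cell number obtained by counting DAPI-stained nuclei in high-throughput microscope images with image analysis software, screen run in 1,536-well plates.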
SMILES,cell count (WM115),cell count (WM1716),cell count (WM1745),cell count (WM3526),cell count (WM3619),cell count (WM451Lu)
"Nc1ncn([C@H]2C[C@H](O)[C@@H](CO)O2)c(=O)n1 [decitabine] + O=C(Nc1cccc(Cl)c1)Nc1ncc(CCNc2ncnc3ccsc23)s1 [SNS314] (first compound 0.1 µM, partner dose 0.0008 µM)",54.9%,78.8%,79.9%,85.3%,89.5%,97.5%
"Nc1ncn([C@H]2C[C@H](O)[C@@H](CO)O2)c(=O)n1 [decitabine] + O=c1cc(-c2cccc3c2Sc2ccccc2S3)oc(N2CCOCC2)c1 [KU55933] (first compound 0.1 µM, partner dose 1 µM)",77.9%,94.8%,110%,87.7%,113%,99.5%
"CC(=O)c1c(C)c2cnc(Nc3ccc(N4CCNCC4)cn3)nc2n(C2CCCC2)c1=O [palbociclib] + COCC[n+]1c2c(n(Cc3cnccn3)c1C)C(=O)c1ccccc1C2=O [YM155] (first compound 0.04 µM, partner dose 0.0004 µM)",85.7%,73.3%,76.3%,50.5%,87%,77.8%
"CC(=O)O[C@@]12CO[C@@H]1C[C@H](O)[C@@]1(C)C(=O)[C@H](O)C3=C(C)[C@@H](OC(=O)[C@H](O)[C@@H](NC(=O)OC(C)(C)C)c4ccccc4)C[C@@](O)([C@@H](OC(=O)c4ccccc4)[C@H]21)C3(C)C [Docetaxel] + Cc1cc(Nc2cc(N3CCN(C)CC3)nc(/C=C/c3ccccc3)n2)n[nH]1 [ENMD2076] (first compound 0.0001 µM, partner dose 0.04 µM)",77.9%,56.3%,63.6%,60.5%,62.2%,95.2%
"CC(=O)c1c(C)c2cnc(Nc3ccc(N4CCNCC4)cn3)nc2n(C2CCCC2)c1=O [palbociclib] + Oc1cc(-c2nc(-c3ccccc3)[nH]c2-c2ccncc2)ccc1Cl [L779450] (first compound 0.04 µM, partner dose 0.2 µM)",71.7%,70.9%,67.9%,53%,75.1%,60.7%
"CC(=O)c1c(C)c2cnc(Nc3ccc(N4CCNCC4)cn3)nc2n(C2CCCC2)c1=O [palbociclib] + Cn1nnc2c(C(N)=O)ncn2c1=O [temozolomide] (first compound 0.04 µM, partner dose 2 µM)",82.6%,62.9%,94.1%,71.6%,82.3%,90.3%
"CO[C@H]1C[C@@H]2CC[C@@H](C)[C@@](O)(O2)C(=O)C(=O)N2CCCC[C@H]2C(=O)O[C@H]([C@H](C)C[C@@H]2CC[C@@H](OCCO)[C@H](OC)C2)CC(=O)[C@H](C)/C=C(\C)[C@@H](O)[C@@H](OC)C(=O)[C@H](C)C[C@H](C)/C=C/C=C/C=C/1C [everolimus] + Cc1nc(Nc2ncc(C(=O)Nc3c(C)cccc3Cl)s2)cc(N2CCN(CCO)CC2)n1 [dasatanib] (first compound 0.02 µM, partner dose 0.004 µM)",70.9%,68.3%,71.1%,59.3%,69%,81.5%
"CO[C@H]1C[C@@H]2CC[C@@H](C)[C@@](O)(O2)C(=O)C(=O)N2CCCC[C@H]2C(=O)O[C@H]([C@H](C)C[C@@H]2CC[C@@H](OCCO)[C@H](OC)C2)CC(=O)[C@H](C)/C=C(\C)[C@@H](O)[C@@H](OC)C(=O)[C@H](C)C[C@H](C)/C=C/C=C/C=C/1C [everolimus] + COc1cc2ncnc(Nc3ccc(Oc4ccccc4)cc3)c2cc1OC [SrcI1] (first compound 0.02 µM, partner dose 2 µM)",73.9%,84.3%,80.8%,78%,70%,89.3%
"CC(=O)O[C@@]12CO[C@@H]1C[C@H](O)[C@@]1(C)C(=O)[C@H](O)C3=C(C)[C@@H](OC(=O)[C@H](O)[C@@H](NC(=O)OC(C)(C)C)c4ccccc4)C[C@@](O)([C@@H](OC(=O)c4ccccc4)[C@H]21)C3(C)C [Docetaxel] + Cn1c(=O)n(-c2ccc(C(C)(C)C#N)cc2)c2c3cc(-c4cnc5ccccc5c4)ccc3ncc21 [NVP-BEZ235] (first compound 0.0001 µM, partner dose 0.004 µM)",55.1%,32.6%,38.7%,45.3%,70.3%,60.8%
"Nc1ccn([C@@H]2O[C@H](CO)[C@@H](O)C2(F)F)c(=O)n1 [gemcitabine] + Cn1cc(/C=C2\C(=O)Nc3cccnc32)c2ccccc21 [GW441756] (first compound 0.0004 µM, partner dose 0.4 µM)",93.7%,106%,87.8%,116%,88.6%,116%
"CC(=O)c1c(C)c2cnc(Nc3ccc(N4CCNCC4)cn3)nc2n(C2CCCC2)c1=O [palbociclib] + COc1ccc(-c2ccc3c(N4CCOCC4)nc(N4C[C@@H](C)O[C@@H](C)C4)nc3n2)cc1CO [KU0063794] (first compound 0.04 µM, partner dose 0.02 µM)",83.4%,62.5%,79.1%,64.3%,74.4%,78.3%
"Nc1nc(F)nc2c1ncn2[C@@H]1O[C@H](CO)[C@@H](O)[C@@H]1O [fludarabine] + O=c1cc(-c2cccc3c2Sc2ccccc2S3)oc(N2CCOCC2)c1 [KU55933] (first compound 0.2 µM, partner dose 1 µM)",108%,99.2%,102%,24.8%,80.7%,37.9%
"Nc1ncn([C@H]2C[C@H](O)[C@@H](CO)O2)c(=O)n1 [decitabine] + CN(NC(=O)CC(=O)NN(C)C(=S)c1ccccc1)C(=S)c1ccccc1 [STA4783] (first compound 0.1 µM, partner dose 0.006 µM)",83.9%,86.5%,86.2%,99.4%,109%,85.9%
"Nc1ncn([C@H]2C[C@H](O)[C@@H](CO)O2)c(=O)n1 [decitabine] + O=C1NC(=O)/C(=C/c2ccc(-c3ccc(F)cc3O)o2)S1 [AS252424] (first compound 0.1 µM, partner dose 1 µM)",79.3%,84.7%,86.9%,101%,73.1%,106%
"CO[C@H]1C[C@@H]2CC[C@@H](C)[C@@](O)(O2)C(=O)C(=O)N2CCCC[C@H]2C(=O)O[C@H]([C@H](C)C[C@@H]2CC[C@@H](OCCO)[C@H](OC)C2)CC(=O)[C@H](C)/C=C(\C)[C@@H](O)[C@@H](OC)C(=O)[C@H](C)C[C@H](C)/C=C/C=C/C=C/1C [everolimus] + Clc1ccc(Nc2nnc(Cc3ccncc3)c3ccccc23)cc1 [vatalanib] (first compound 0.02 µM, partner dose 2 µM)",72.3%,62.7%,73.7%,59.5%,67%,90.5%
"Nc1ncn([C@H]2C[C@H](O)[C@@H](CO)O2)c(=O)n1 [decitabine] + CCc1ccc(CCOc2ccc(CC3SC(=O)NC3=O)cc2)nc1 [pioglitazone] (first compound 0.1 µM, partner dose 2 µM)",70.2%,83.5%,69.1%,110%,98.5%,88%
"Nc1nc(F)nc2c1ncn2[C@@H]1O[C@H](CO)[C@@H](O)[C@@H]1O [fludarabine] + NC(=O)Nc1cc(-c2cccc(F)c2)sc1C(=O)N[C@H]1CCCNC1 [AZD7762] (first compound 0.2 µM, partner dose 0.02 µM)",78.4%,83.8%,86.3%,34.4%,46.7%,52.4%
"Nc1nc(F)nc2c1ncn2[C@@H]1O[C@H](CO)[C@@H](O)[C@@H]1O [fludarabine] + CN(NC(=O)CC(=O)NN(C)C(=S)c1ccccc1)C(=S)c1ccccc1 [STA4783] (first compound 0.2 µM, partner dose 0.006 µM)",73.9%,75.7%,46.4%,22%,52%,50.8%
"Nc1nc(F)nc2c1ncn2[C@@H]1O[C@H](CO)[C@@H](O)[C@@H]1O [fludarabine] + CC(C)CCN1c2nc(Nc3cc(F)c(O)c(F)c3)ncc2N(C)C(=O)C1C [BID1870] (first compound 0.2 µM, partner dose 0.2 µM)",90.9%,102%,82%,28.6%,99.1%,42%
"Nc1ccn([C@@H]2O[C@H](CO)[C@@H](O)C2(F)F)c(=O)n1 [gemcitabine] + C=CCn1c(=O)c2cnc(Nc3ccc(N4CCN(C)CC4)cc3)nc2n1-c1cccc(C(C)(C)O)n1 [MK1775] (first compound 0.0004 µM, partner dose 0.02 µM)",87.8%,78%,37.6%,98.1%,59.4%,85.3%
"CC(=O)c1c(C)c2cnc(Nc3ccc(N4CCNCC4)cn3)nc2n(C2CCCC2)c1=O [palbociclib] + NCC(=O)Nc1ccc(-n2nc(C(F)(F)F)cc2-c2ccc3c(ccc4ccccc43)c2)cc1 [OSU03012] (first compound 0.04 µM, partner dose 1 µM)",66.1%,57.3%,75.6%,50.6%,73.3%,45.8%

# Reference: the supplement of paper PMC4604168 (melanoma cell lines)
